This is one part of the list.
B1: chr17:45747064:45747065:+_ENSG00000108424_ENST00000290158|hu_hu|hu_hu_hu_mus_True|28_108 (ssRNA)
RNA: GGGAGUUCUACAGUCCGACGAUCGCCUACAGUCCAUGCUGUUGUGUCUCGAACAACUACACUGGGGUCUUUCAUUAGUUCUAUUAGGGUGGGCAUAGCCUGUAUGACUAGUGGUUUCAGUUGAUUAGGCUCUGGUCCUUCCAACAACAGAGGAUUGAGCAUCA
B2: chr16:94647761:94647762:+_ENSMUSG00000040785_ENSMUST00000117648|mus_mus|FALSE|FALSE (ssRNA)
RNA: GGGAGUUCUACAGUCCGACGAUCGAUAAUCUUAGAAAUGAUUCCCUCACAAUCGGGAGUGAGACAGAUUCCUUGUAGAAAAUCCUUGUCAAUUUUAUCAUUAAAAGUUGUUGUUUUUAACUUUUUCCAGCAGUUCAUAUGAAACAACAGAGGAUUGAGCAUCA
B3: chr7:30640729:30640730:+_ENSG00000106105_ENST00000389266|hu_hu|motif|central (ssRNA)
RNA: GGGAGUUCUACAGUCCGACGAUCCUGAAUAAUAUUGUUCUUCAAAGCACAGCCAACUGGCCCAAAGUCAUACAGACCACGGACACCUCCAUAAAUAGCAAAAGCUUGAUCAUAGAAAAACCUCCUCUUCAGGGUAUCUUCCAUCAACAGAGGAUUGAGCAUCA
B4: 113631578_113639612_387_3pUTR_ENSG00000086827_ENST00000200135|human|control|control (ssRNA)
RNA: GGGAGUUCUACAGUCCGACGAUCCUUUCCAACUGCUGCUUUAAGUCUGUAAAUUCACCGGUUGAUACGUGAAGAUCCCGGCGGACCUCACUCUCUAUCCUGGAUUUCAGCAGGUCAAUGUCUUCAGAUAGCUUAUCCACCUGGCAACAGAGGAUUGAGCAUCA
B5: chr4:101271765:101271766:+_ENSMUSG00000028528_ENSMUST00000094953|mus_mus|FALSE|FALSE (ssRNA)
RNA: GGGAGUUCUACAGUCCGACGAUCAGACUUGGGUGACAAGUUGUAUACUGUGUAGUGGUCAAGAUGUCUGGAAUCCAAAAAGCUACGGAUGUCAUCAACCUGAUUCCUGAAUCCUAUGUCAACACUAUCCACAGGAAAGGACAUCAACAGAGGAUUGAGCAUCA
B6: chr22:19452774:19452775:-_ENSG00000070010_ENST00000399523|hu_hu|hu_hu_hu_mus_False|38_68 (ssRNA)
RNA: GGGAGUUCUACAGUCCGACGAUCCUUCUCAUUGUAGUUGAUAGCAAUCACAUCUCCAGUCGUCAGACAGGCAAAGUUUCUCAAUGCAUUUUCUAAUACGGCUUUGGGGUUGGUAAUAUCCAGGAAGUCUGGGCUCUGAGGCUGCAACAGAGGAUUGAGCAUCA
B7: 105531169_105531289_1356_3pUTR_ENSMUSG00000068798_ENSMUST00000090678|mouse|control|control (ssRNA)
RNA: GGGAGUUCUACAGUCCGACGAUCAUAAACAAUAACAAAAAGACACAAACCAAAUGAAAAUGUACUAAAAUUUAAUCAUCCAUAAAAGCUGUAAUUUAAUCUGACAGUAAAACACAAGAAGCAAUAUUAGAGUUGGUUUAGUAUCAACAGAGGAUUGAGCAUCA
B8: chr17:61910164:61910165:-_ENSG00000108604_ENST00000448276|hu_mus|FALSE|FALSE (ssRNA)
RNA: GGGAGUUCUACAGUCCGACGAUCCAGUAAUAAGGCUUUGGGAACCAAGCAGUGAGGGAUCUAAAACUACAUUUAUGAAACUAAAGCUGGGGAGUGGAGGGUGACAGGAAACACACCUCACUCCAUCCUACAUGUCUGCAGCCCCAACAGAGGAUUGAGCAUCA
B9: chr1:235506033:235506034:+_ENSG00000152904_ENST00000391855|hu_hu|motif|central (ssRNA)
RNA: GGGAGUUCUACAGUCCGACGAUCUUAACAUUAUUCAUUUUCUUCUUUGAACAUCUUACUUAAGUGUUUUACUAAGGCGGCGGGCUCAGGGUUCCCACCACGUGCAUCAAUCUGUUUAUAGGCUUUAGCUUCAAGCUCUUUAAGCAACAGAGGAUUGAGCAUCA
B10: chr14:65392728:65392729:+_ENSG00000258289_ENST00000359118|hu_hu|FALSE|FALSE (ssRNA)
RNA: GGGAGUUCUACAGUCCGACGAUCGUAUCUUCGGCUUUGCCGCAUAACAGACACAGCAUGGUAUACUCGAUCAUAGGUAACUAUUUCUUCUCCAUCUUCUUCUUUCAAGGAUUUGUUUGUGAUCAGCAUAAAAUCCCGCUUACUCAACAGAGGAUUGAGCAUCA
B11: chr13:110848956:110848957:-_ENSMUSG00000021700_ENSMUST00000167824|mus_mus|motif|central (ssRNA)
RNA: GGGAGUUCUACAGUCCGACGAUCAGACAAACCAACACUAGAGUUCUUGGGAGUGUUUUCCGAAGCAGUUAGGGUUGUUCGGAAAACAAUGGAUGGGCAGGGGUACCCAGAUGACCACAGGGGAGGGCAAUGACACACUUAAAACAACAGAGGAUUGAGCAUCA
B12: 14083628_14083748_6356_3pUTR_ENSG00000147862_ENST00000380959|human|control|control (ssRNA)
RNA: GGGAGUUCUACAGUCCGACGAUCGUAGAGUUGUUUCAUUAAAAAUGAAUACUGUACACUGAAUAUGGGAUAACUUUCUGCAGCCUUCAUCAUUUCACACAGUACAUAGAAUUUGAAUCUAGGUAAAGAACAUGUCCUGCUGUCCAACAGAGGAUUGAGCAUCA
B13: chr7:27831639:27831640:+_ENSG00000106052_ENST00000265393|hu_mus|FALSE|FALSE (ssRNA)
RNA: GGGAGUUCUACAGUCCGACGAUCAAGUUCUUGCCGUGUUGCCUGGACUUGUUCCUCCGCUUUGCGAAGUUGCUCCUUUAAAAAUAAUGUAUCUUCUUUAUUUGAGGUUGUAAGCAGGAGAGCUCUGUACAAAUUUUCCUUGUCCAACAGAGGAUUGAGCAUCA
B14: chr11:118025658:118025659:-_ENSMUSG00000017132_ENSMUST00000017276|mus_hu|motif|central (ssRNA)
RNA: GGGAGUUCUACAGUCCGACGAUCUUGUAUUUUGACAAAACUUCUUUUAAACAAAUACAAAAUAAUCUAAAAGGAGAAAAACGGUACAUAGAUUAUUUACACCUCUGAUAAAUAGACUAAUACUGACCCAGGUGCCUCUCUGUCCAACAGAGGAUUGAGCAUCA

Each binder was assayed against T1, UNK ZnF1-3 (human, UniProt Q9C0B0 31-174) (assay: nsRBNS (natural sequence RNA bind-n-seq); RBNS binding buffer (assumed for nsRBNS): 25 mM Tris pH 7.5, 150 mM KCl, 3 mM MgCl2, 0.01% Triton X-100, 500 ug/ml BSA, 20 U/ml SUPERase-In, 4 C; UNK is unkempt and MSI1 is Musashi-1; names of the RNAs are library labels; protein concentration not given here; high values mean tight binding).
T1 sequence: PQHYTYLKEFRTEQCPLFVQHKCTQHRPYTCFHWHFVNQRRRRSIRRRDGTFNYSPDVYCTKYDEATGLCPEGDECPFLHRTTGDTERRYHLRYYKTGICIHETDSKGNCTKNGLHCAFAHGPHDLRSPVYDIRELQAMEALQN

Binder	binding signal [enrichment R]
B1	0.667
B2	0.548
B3	1.05
B4	0.543
B5	1.11
B6	1.03
B7	1.54
B8	1.24
B9	0.627
B10	0.662
B11	1.96
B12	0.719
B13	0.672
B14	1.49
